The record followed here is the RNAGym collection of RNA variant scans (doi:10.1073/pnas.2313332121).

B1: TPR 5TU (parent)
chain: GGAUCUUCUCGAUCUAACAAAAAAGACAAAUCUGCCACAAAGCUUGAGAGCAUCUUCGGAUGCAGAGGCGGCAGCCUUCGGUGGCGCGAUAGCGCCAACGUUCUCAACUAUGACACGCAAAACGCGUGCUCCGUUGAAUGGAGUUUAUCAUG

Variants at the background level are over-represented here.

In this series the parent is B1. Briefly: polymerase ribozyme fitness, log enrichment relative to wild type (log ratio); higher = more active; in vitro selection for triplet polymerase activity. The procedure, abridged:
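Fitness compares each genotype's enrichment to that of the wild type on a logarithmic scale, averaging replicates with inverse-variance weights. The logarithm is base 2. Enrichment came from Illumina sequencing of input and output libraries after one triplicate round of in vitro selection, which included frozen incubation at −7 °C, of PCR-built, transcribed mutant libraries of each subunit of a heterodimeric triplet polymerase ribozyme. Only genotypes with ≥10 input reads and ≥1 read per output were kept.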
Turning to GGAUCUUCUCGAUCUAACAAAAAAGACAAAUCUGCCACAAAGCUUGAGAGCAUCUUCGGAUGCAGAGGCGGCAGCCUUCGGUGGCGCGAUAGAGCCAACGUUCUCAACUAUGACACGCAAAACGCGUGCUCCGUUGAAUGGAGUUAACCAUG, the “polymerase ribozyme fitness (log ratio)” value is at most -4.2.

GGAUCUUCUCGAUCUAACAAAAAAGACAAAUCUGCCACAAAGCUUGAGAGCAUCUUCGGAUGCAGAGGCGGCAGCCUUCGGUGGCGCGAUAGGGCCAACGUUUUCAACUAUGACACGCAAAACGCGUGCUCCGUUGAAAGGAGUUUAUCAUG: the “polymerase ribozyme fitness (log ratio)” value was at most -4.2.

With GGAUCUUCUCGAUCUAACAAAAAAGACAAAUCUGCCACAAAGCUUGAGAGCAUCUUCGGAUGCAGAGGCGGCAGCCUUCGGUGGCGCGAUAGGGCCAACGUUCUCAAAUAUGACACGCAAAACGCGUGCUCCGUUGAAUGGAGUUUAUCAUG, the “polymerase ribozyme fitness (log ratio)” value is at most -4.2.

Turning to GGAUCUUCUCGAUCUAACAAAAAAGACAAAUCUGCCACAAAGCUUGAGAGCAUCUUCGGAUGCAGAGGCGGCAGCCUUCGGUGGCGCGAUAGGGCCAACGUUCUCAAUUAUGACACGCAAAACGCGUGCUCCGUUGAAUGGAGUUUAUCAUG, the “polymerase ribozyme fitness (log ratio)” value is -3.94.

With GGAUCUUCUCGAUCUAACAAAAAAGACAAAUCUGCCACAAAGCUUGAGAGCAUCUUCGGAUGCAGAGGCGGCAGCCUUCGGUGGCGCGAUAGAGCCAACGUUCUCAACUAUGACACGCAAAACGCGUGCUCAGUUGAAUGGAGUUUAUCAUG, the “polymerase ribozyme fitness (log ratio)” value was at most -4.2.

Turning to GGAUCUUCUCGAUCUAACAAAAAAGACAAAUCUGCCACAAAGCUUGAGAGCAUCUUCGGAUGCAGAGGCGGCAGCCUUCGGUGGCGCGAUAGGGCCAAGGUUAUCAACUAUGACUCGCAAAACGCGUGCUCUGUUGAAUGGAGUUUAUCAUG, the “polymerase ribozyme fitness (log ratio)” value is at most -4.2.

As for GGAUCUUCUCGAUCUAACAAAAAAGACAAAUCUGCCACAAAGCUUGAGAGCAUCUUCGGAUGCAGAGGCGGCAGCCUUCGGUGGCGCGAUAGGGCCAACGUUCUCAACUAUGACACGCUAAACGCGUGCUCCGUUGAAUGGAGUUUAUCAUG, the “polymerase ribozyme fitness (log ratio)” value was -3.51.

Consider GGAUCUUCUCGAUCUAACAAAAAAGACAAAUCUGCCACAAAGCUUGAGAGCAUCUUCGGAUGCAGAGGCGGCAGCCUUCGGUGGCGCGAUAGGGCCAACGUUCUCAACUAUGACACGCCAAACGCGUGCUCCGUUGAAUGGAGUUUAUCAUG, for which the “polymerase ribozyme fitness (log ratio)” value was -3.47.

For GGAUCUUCUCGAUCUAACAAAAAAGACAAAUCUGCCACAAAGCUUGAGAGCAUCUUCGGAUGCAGAGGCGGCAGCCUUCGGUGGCGCGAUAGGGCCAUCGUUCUCAACUAUGACACGCAAAACGCGUGCUCCGUUGAAUGGAGUUUAUCAUG, the “polymerase ribozyme fitness (log ratio)” value was -2.82.

With GGAUCUUCUCGAUCUAACAAAAAAGACAAAUCUGCCACAAAGCUUGAGAGCAUCUUCGGAUGCAGAGGCGGCAGCCUUCGGUGGCGCGAUAGGGCCAACGUUGGCAACUAUGACACGCAAAACGCGUGCUCCGUUGAAUGCAGUUUAUCAUG, the “polymerase ribozyme fitness (log ratio)” value is at most -4.2.

In the case of GGAUCUUCUCGAUCUAACAAAAAAGACAAAUCUGCCACAAAGCUUGAGAGCAUCUUCGGAUGCAGAGGCGGCAGCCUUCGGUGGCGCGAUAGGGACAACGUUUUCAACUAUGACACGCAAAACGCGUGCUCCGUUGAAUGGAGUUUAUCAUG, the “polymerase ribozyme fitness (log ratio)” value was at most -4.2.

Turning to GGAUCUUCUCGAUCUAACAAAAAAGACAAAUCUGCCACAAAGCUUGAGAGCAUCUUCGGAUGCAGAGGCGGCAGCCUUCGGUGGCGCGAUAGAGCCAACGUUCUCAACUAUGACACGCAAAACGCGUGCUCCGUUGAAUGGAGUUCAUCAUG, the “polymerase ribozyme fitness (log ratio)” value is -2.18.

Turning to GGAUCUUCUCGAUCUAACAAAAAAGACAAAUCUGCCACAAAGCUUGAGAGCAUCUUCGGAUGCAGAGGCGGCAGCCUUCGGUGGCGCGAUAGAGCCAACGUUCCCAACUAUGACACGCAAAACGCGUGCUCCGUUGAAUGGAGUUUAUCAUG, the “polymerase ribozyme fitness (log ratio)” value was -3.27.

Turning to GGAUCUUCUCGAUCUAACAAAAAAGACAAAUCUGCCACAAAGCUUGAGAGCAUCUUCGGAUGCAGAGGCGGCAGCCUUCGGUGGCGCGAUAGGGCCAACGUUCUCAACUAUGACACGUAAAAUGCGUGCUCCGUUGAAUGGAGUUUAUCAUG, the “polymerase ribozyme fitness (log ratio)” value was -3.29.

Take GGAUCUUCUCGAUCUAACAAAAAAGACAAAUCUGCCACAAAGCUUGAGAGCAUCUUCGGAUGCAGAGGCGGCAGCCUUCGGUGGCGCGAUAGGGCCACCGUUCUCAACUAUGACACGCAAAACGCGUGCUCCGUUGAAUGGACUUUAUCAUG: the “polymerase ribozyme fitness (log ratio)” value is -4.05.

GGAUCUUCUCGAUCUAACAAAAAAGACAAAUCUGCCACAAAGCUUGAGAGCAUCUUCGGAUGCAGAGGCGGCAGCCUUCGGUGGCGCGAUAGGGCCUACGUUCUCAACUAUGACACGCAAGACGCGUGCUCCGUUGAAUGGAGUUUAUCAUG: the “polymerase ribozyme fitness (log ratio)” value was at most -4.2.

With GGAUCUUCUCGAUCUAACAAAAAAGACAAAUCUGCCACAAAGCUUGAGAGCAUCUUCGGAUGCAGAGGCGGCAGCCUUCGGUGGCGCGAUAGAGCCAACGUUCUCAACUAUGACACGUAAAACGCGUGCUCCGUUGAAUGGAGUUUAUCAUG, the “polymerase ribozyme fitness (log ratio)” value is -3.29.

GGAUCUUCUCGAUCUAACAAAAAAGACAAAUCUGCCACAAAGCUUGAGAGCAUCUUCGGAUGCAGAGGCGGCAGCCUUCGGUGGCGCGAUAGGGACAACGUUCUCAACUAUGACACGCAAAAAGCGUGCUCCGUUGAAUGGAGUUUAUCAUG: the “polymerase ribozyme fitness (log ratio)” value is at most -4.2.

For the variant GGAUCUUCUCGAUCUAACAAAAAAGACAAAUCUGCCACAAAGCUUGAGAGCAUCUUCGGAUGCAGAGGCGGCAGCCUUCGGUGGCGCGAUAGGGCUAACGUUCUCAACUAUGACACGCAAAACGCGUGCUCCGUUGAAUGGAGUUUAUCAUG, the “polymerase ribozyme fitness (log ratio)” value was -3.61.
